The whole screen tested about 52,000 compounds, of which about 4,300 (8.3%) were called active. Rule as the data show it: active = survival mostly below about 52% (no sharp cut-off); inactive = mostly above about 56%. The list shows a part of the results.

For the experiment, the system named is DeltatarO mutant. The experiment can be described thus: S. aureus survival, RN4220 and DeltatarO strains – OD600, teichoic acid synthesis inhibitors, primary screen (AID 463173). The settings on record: S. aureus RN4220 wild type/DeltatarO growth, OD600, 18 h, hits give low values, screened at 18.75 µg/mL (by protocol).
As to `Cc1ccc2c(c1)-c1onc(C(=O)N(C)c3ccc(F)cc3)c1CO2`, the survival was inactive: 65%.

With `Cc1cccc(CC(=O)Nc2cccc(-c3cn4cccnc4n3)c2)c1`, the survival was inactive: 94%.

Take `CC1=C(C)NC(=S)SC1`: the survival was inactive: 101%.

Turning to `CCOc1ccc(NC(=O)Cn2cc(C(=O)c3ccccc3)c(=O)c3cc(OC)ccc32)cc1`, the survival was inactive: 73%.

In the case of `COC(=O)c1cc(NC(=O)CCc2c(C)nc3nc(C)nn3c2C)cc(C(=O)OC)c1`, the survival is inactive: 84%.

In the case of `CC(=O)N1C(=O)/C(=C2\SC(=S)N(C(C)C(=O)O)C2=O)c2ccccc21` (configuration not stated), the survival is inactive: 112%.

In the case of `CCN1C(=O)c2ccccc2S(=O)c2ccc(C(=O)N3CCN(c4cccc(Cl)c4)CC3)cc21` (configuration not stated), the survival is inactive: 59%.

In the case of `O=C(Cc1ccc(F)cc1)NCCc1csc2nc(-c3ccc(Cl)cc3)nn12`, the survival was inactive: 95%.

`O=C(NCc1ccc2c(c1)CCN2C(=O)c1ccncc1)c1cccc(F)c1`: the survival was inactive: 96%.

As for `CCOC(=O)c1[nH]c(C)c(C(=O)NCc2ccccc2Cl)c1C`, the survival is inactive: 108%.

Regarding `O=C(CCc1nnc2n(Cc3ccccc3Cl)c(=O)c3ccccc3n12)Nc1ccccc1`, the survival was inactive: 86%.

With `CCCCN(c1ccccc1)S(=O)(=O)c1cc2c3c(c1)C(C)C(=O)N3CCC2` (configuration not stated), the survival is inactive: 69%.

On to `COc1ccc(NC(=O)c2ccc(-c3nc(CSc4ccccc4)c(C)o3)cc2)c(OC)c1`, for which the survival was inactive: 74%.

In the case of `CCc1ccc(S(=O)(=O)Nc2ccc3oc(C)c(C(=O)OCCOC)c3c2)cc1`, the survival was active: 32%.

For the compound `Cc1cccc(NC(=O)c2cc3c(C)nn(-c4ccccc4)c3s2)c1`, the survival was active: 6%.

`COc1ccc(CNC(=O)C2CCN(S(=O)(=O)Cc3ccccc3)CC2)cc1`: the survival is inactive: 107%.

In the case of `O=C(Cc1ccccc1)NCc1ccccn1`, the survival was inactive: 93%.

On to `CC(=O)C(Sc1nc(-c2ccccc2Cl)nc2c1c(=O)n(C)c(=O)n2C)C(=O)N(C)C` (configuration not stated), for which the survival is inactive: 75%.

Consider `CCCCN(CC)C(=O)Cn1cc2c(n1)-c1c(oc(C(=O)N3CCCC3)c1C)CC2`, for which the survival was inactive: 76%.

As for `CCOc1ccc(C2c3[nH]c4ccccc4c3CCN2C(=O)CCC2CCCC2)cc1` (configuration not stated), the survival was inactive: 90%.

Regarding `CCOC(=O)C1CCCN(S(=O)(=O)c2cc(Br)cc3c2N(C(=O)CC)CC3)C1` (configuration not stated), the survival is inactive: 60%.

In the case of `Fc1ccc(-n2ncc3c(NCCCc4ccccc4)ncnc32)cc1`, the survival was inactive: 109%.

For `Cc1ccc(COC(=O)c2ccc(-c3nnn(Cc4ccc(C)cc4)n3)cc2)cc1`, the survival is inactive: 69%.

For `CCN(CCCNC(=O)CN1N=C(c2ccc(C)cc2)CCC1=O)c1ccccc1`, the survival was active: 0%.

As to `O=c1cc(-c2ccccc2)nc(SCc2nc(-c3cccc(C(F)(F)F)c3)no2)[nH]1`, the survival is inactive: 92%.

`Cc1nn(-c2ccc(N3CCCCC3)nn2)c(C)c1CCC(=O)Nc1cccc(F)c1`: the survival is inactive: 73%.

As to `Cc1ccn2c(=O)c(NC(=O)c3cccc([N+](=O)[O-])c3C)c(C)nc2c1`, the survival is inactive: 55%.

For the compound `O=C(NCCCc1ccccc1)c1ccc2c(c1)sc1nc(-c3ccc(F)cc3)cn12`, the survival was active: 44%.

As to `Cc1ccccc1CN1C(=O)c2ccccc2Sc2ccc(C(=O)NCCCN3CCOCC3)cc21`, the survival was inactive: 95%.

Regarding `CCC(=O)N=c1sc2ccccc2n1C`, the survival is inactive: 87%.

`CCOc1ccc(CC(=O)NCc2ccc3c(c2)CCN3C(=O)c2ccc(F)cc2)cc1OCC`: the survival was inactive: 92%.

As to `Cc1ccc(Sc2c(C)nn(-c3ccccc3)c2OC(=O)CC(C)C)cc1`, the survival is active: 21%.

Take `CC1(C)CC2(C=CC(=O)CC2)CCO1` (configuration not stated): the survival was inactive: 80%.

As for `O=C(NC1CCCCC1)c1ccc2ccccc2n1`, the survival is inactive: 79%.

Regarding `CC(=O)c1ccc(S(=O)(=O)Nc2cccc(-c3ccc(N4CCCC4)nn3)c2)cc1`, the survival is inactive: 89%.

For `COc1ccc(C2CC(=O)C=C(NCCC(C)C)C2)cc1` (configuration not stated), the survival is inactive: 111%.

Turning to `Cc1ccc(NC(=O)NCc2c(-n3cccc3)sc3c2CCCC3)c(Cl)c1`, the survival was inactive: 86%.

For the compound `Cc1ccc(CNC(=O)CCCn2nc(C)n3c(cc4sccc43)c2=O)cc1`, the survival was inactive: 83%.

`CCN(Cc1ccccc1)S(=O)(=O)c1ccc(F)c(C(=O)Nc2ccc(C(C)C)cc2)c1`: the survival is inactive: 101%.

For the compound `Cc1cccc(C)c1NC(=O)c1cc2sccc2n1Cc1ccc(F)cc1`, the survival was inactive: 96%.

On to `COc1ccc(OC)c(CNc2ncc(-c3ccc(Cl)cc3)n2C)c1`, for which the survival was active: 25%.

In the case of `CCOC(=O)c1cccc(NC(=O)NC2COc3ccccc3C2)c1` (configuration not stated), the survival was inactive: 98%.

`Cc1ccc(CNC(=O)c2cn(C)c3ccc(S(=O)(=O)N4CCC(C)CC4)cc3c2=O)cc1`: the survival is inactive: 69%.

Turning to `O=C(CN1CCN(c2nc3ccccc3s2)CC1)Nc1ccc2c(c1)OCO2`, the survival is inactive: 94%.

Turning to `COc1ccccc1NC(=O)c1oc2ccccc2c1NC(=O)c1c(F)cccc1F`, the survival was inactive: 51%.

As to `CCOC(=O)C1(C)C=C(Nc2ccc(OC)cc2)C(=O)N1c1ccccc1` (configuration not stated), the survival is inactive: 60%.

In the case of `Cc1cc(C)cc(NC(=O)C2CCCN2S(=O)(=O)c2ccc3c(c2)C(C)(C)C(=O)N3C)c1` (configuration not stated), the survival was inactive: 52%.

For the compound `Cc1ccc(-c2nnn(CC(=O)NC(C)C)n2)cc1`, the survival is inactive: 83%.

With `COC(=O)c1cc2oc3ccccc3c2n1Cc1nc(-c2cccc(Cl)c2)oc1C`, the survival was inactive: 133%.

Turning to `CCc1ccc(Nc2nn3c(=O)c4cc5c(cc4nc3s2)OCO5)cc1`, the survival was inactive: 73%.

`O=C(Nc1cccc(Cl)c1Cl)c1cc(S(=O)(=O)N2CCC3(CC2)OCCO3)ccc1F`: the survival was inactive: 60%.

`COc1cc(OC)cc(C(=O)Nc2ccc(S(=O)(=O)N3CCCCC3c3cccnc3)cc2)c1` (configuration not stated): the survival was inactive: 99%.

Take `Cc1ccc(-n2nc3c(N4CCC(C(=O)N5CCC(C)CC5)CC4)nnc(C)c3c2C)cc1`: the survival was inactive: 107%.

In the case of `Cc1cc(C)c(Cn2c3ccccc3c3cnn(CC(=O)NC4CCCCCC4)c(=O)c32)c(C)c1`, the survival is inactive: 133%.

On to `CCN(CC)c1ccc(/C=C2/SC(=O)NC2=O)cc1`, for which the survival was active: 34%.

For `COc1ccc(Cn2cc(C(=O)c3ccc(Cl)cc3)c(=O)c3cc4c(cc32)OCO4)cc1`, the survival was inactive: 56%.

For `O=C(c1ccccc1N=Nc1c(O)[nH]c(=O)[nH]c1=O)N1CCOCC1`, the survival is inactive: 95%.

With `Cc1ccc(C)c(N2CCN(C(=O)c3cc4c(=O)n(Cc5cccnc5)ccc4nc3C)CC2)c1`, the survival is active: 46%.

`NC(=O)Cn1c2[n+](c3ccccc31)CC(O)CS2` (configuration not stated): the survival is inactive: 81%.

Regarding `O=C(O)C1CCN1C1CCCCC1` (configuration not stated), the survival was inactive: 64%.

Turning to `Cc1cccc(CSc2nc3cccnc3n2Cc2ccc(C(=O)NCc3cccs3)cc2)c1`, the survival was inactive: 93%.

Turning to `COc1ccc(NC(=O)CSc2nc3ccccc3n2CC(=O)N2CCCC(C)C2)cc1` (configuration not stated), the survival is inactive: 88%.

Turning to `CCn1c(=O)c2cc(C(=O)Nc3cc(C)c(Cl)cc3OC)sc2c2ccccc21`, the survival is inactive: 69%.

For `Cc1cccc(C(=O)Nc2c(-c3ccc(F)cc3)nc3ccccn23)c1`, the survival was inactive: 91%.

Take `Cc1cc(C)n(-c2nc3cc(Cl)c(Cl)cc3nc2Nc2ccc(F)cc2C)n1`: the survival was inactive: 89%.

With `CC(C)Cn1c(=O)c2sccc2n2c(CCCC(=O)NCC(C)c3ccccc3)nnc12` (configuration not stated), the survival is inactive: 91%.

In the case of `Cc1c(C(=O)NC2CCCCC2)oc2ccccc12`, the survival was inactive: 101%.

Take `O=C(NCCN1CCN(c2ccccc2F)CC1)C1COc2ccccc2C1` (configuration not stated): the survival was inactive: 78%.

With `COCCn1nnnc1C(c1ccc(OC)c(OC)c1)N1CCc2ccccc21` (configuration not stated), the survival was inactive: 92%.

Regarding `C=CCNC(=O)c1cc(-c2ccccc2)on1`, the survival is inactive: 93%.

For `NC(=O)CN1CCC(N2CCCCC2)CC1`, the survival is inactive: 96%.

With `O=C(CSc1oc(-c2ccccc2)nc1S(=O)(=O)c1ccc(Br)cc1)NC1CCCCC1`, the survival is inactive: 70%.

For `N/C(=N/OC(=O)c1ccccc1)c1ccccn1`, the survival was inactive: 87%.

For `COc1cccc(-c2ccc3c(N)c(C(=O)Nc4ccc(Cl)cc4F)sc3n2)c1`, the survival is inactive: 59%.

With `CCc1ccccc1NC(=O)Cc1ccc(-n2c(C)nc3cccnc32)cc1`, the survival was inactive: 105%.

On to `COc1ccc(OC)c(NC(=O)Cc2c(C(=O)O)[nH]c3ccc(Cl)cc23)c1`, for which the survival was inactive: 54%.

In the case of `Cc1ccc(C2=Nc3ccccc3N(CC(=O)NCc3ccc(Cl)cc3)C(=O)C2)cc1C`, the survival is inactive: 55%.

Consider `COc1ccc(CNC(=O)c2ccc3c(c2)N(Cc2ccccc2F)C(=O)c2ccccc2S3=O)cc1` (configuration not stated), for which the survival is inactive: 76%.

For the compound `CC(=O)Nc1nonc1-c1nnc(SCc2ccccc2C)n1C`, the survival is active: 42%.

As for `CCOc1nc(NC(=O)NS(=O)(=O)Oc2cccc(F)c2)nc(-c2ccccc2)n1`, the survival is inactive: 74%.

Consider `Cc1ccc(NS(=O)(=O)c2ccc3[nH]c4c(c3c2)CCCC4)c(C)c1`, for which the survival is inactive: 86%.

For `CC1CCc2c(sc3nnn(Cc4ccccc4)c(=O)c23)C1` (configuration not stated), the survival was active: 3%.

As to `Cc1ccc(-c2nc3ccccn3c2Nc2c(C)cccc2C)o1`, the survival was active: -2%.

`Cc1nnc(N2CCCC(C(=O)Nc3ccccc3C(F)(F)F)C2)c2nn(-c3ccccc3)c(C)c12` (configuration not stated): the survival is inactive: 99%.

With `NC(=O)N(CCC(=O)O)c1ccccc1`, the survival was inactive: 78%.

Take `CC(=O)N(Cc1cccnc1)c1nc2c(C)cc(C)cc2s1`: the survival is inactive: 70%.

For the compound `COc1ccc(CNC(=O)c2cc(-c3cccs3)nc3ccccc23)c(OC)c1`, the survival is inactive: 122%.

Consider `Cc1ccc(NC(=S)N(Cc2ccco2)Cc2cc3cc(C)c(Cl)cc3[nH]c2=O)cc1`, for which the survival was inactive: 82%.

Consider `O=C(Nc1nnc(S(=O)(=O)N2CCCCCC2)s1)c1ccc(Br)cc1`, for which the survival was inactive: 60%.

`COc1c(Cl)cc(C(=O)Nc2cccc(-c3nc4ccccc4[nH]3)c2)cc1Cl`: the survival is active: 15%.

Consider `CC(=O)c1ccc(NC2=NS(=O)(=O)c3ccccc32)cc1`, for which the survival was inactive: 77%.

As for `O=C(NCc1ccc(F)cc1)c1ccc(CSc2nc3ccncc3n2Cc2ccc(F)cc2)cc1`, the survival was inactive: 58%.

These data come from PubChem BioAssay AID463173 (ICCB-Longwood Screening Facility, Harvard Medical School, 2010).
